Experimental data published in publication PMC4336329 (PLoS ONE, 2015).
The campaign covered roughly 310,000 compounds. About 14,000 (4.5%) showed an effect of 50% or more. Effects have a minus sign here. The list shows a part of the results.

Target: human ether-à-go-go-related gene (hERG) potassium channel (human, UniProt Q12809)
Assay: primary screen, population patch clamp on CHO cells stably expressing hERG
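Further: peak tail current of the secondary pulse compared with the same well before compound.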

Chain of human ether-à-go-go-related gene (hERG) potassium channel (Q12809 whole entry, looked up): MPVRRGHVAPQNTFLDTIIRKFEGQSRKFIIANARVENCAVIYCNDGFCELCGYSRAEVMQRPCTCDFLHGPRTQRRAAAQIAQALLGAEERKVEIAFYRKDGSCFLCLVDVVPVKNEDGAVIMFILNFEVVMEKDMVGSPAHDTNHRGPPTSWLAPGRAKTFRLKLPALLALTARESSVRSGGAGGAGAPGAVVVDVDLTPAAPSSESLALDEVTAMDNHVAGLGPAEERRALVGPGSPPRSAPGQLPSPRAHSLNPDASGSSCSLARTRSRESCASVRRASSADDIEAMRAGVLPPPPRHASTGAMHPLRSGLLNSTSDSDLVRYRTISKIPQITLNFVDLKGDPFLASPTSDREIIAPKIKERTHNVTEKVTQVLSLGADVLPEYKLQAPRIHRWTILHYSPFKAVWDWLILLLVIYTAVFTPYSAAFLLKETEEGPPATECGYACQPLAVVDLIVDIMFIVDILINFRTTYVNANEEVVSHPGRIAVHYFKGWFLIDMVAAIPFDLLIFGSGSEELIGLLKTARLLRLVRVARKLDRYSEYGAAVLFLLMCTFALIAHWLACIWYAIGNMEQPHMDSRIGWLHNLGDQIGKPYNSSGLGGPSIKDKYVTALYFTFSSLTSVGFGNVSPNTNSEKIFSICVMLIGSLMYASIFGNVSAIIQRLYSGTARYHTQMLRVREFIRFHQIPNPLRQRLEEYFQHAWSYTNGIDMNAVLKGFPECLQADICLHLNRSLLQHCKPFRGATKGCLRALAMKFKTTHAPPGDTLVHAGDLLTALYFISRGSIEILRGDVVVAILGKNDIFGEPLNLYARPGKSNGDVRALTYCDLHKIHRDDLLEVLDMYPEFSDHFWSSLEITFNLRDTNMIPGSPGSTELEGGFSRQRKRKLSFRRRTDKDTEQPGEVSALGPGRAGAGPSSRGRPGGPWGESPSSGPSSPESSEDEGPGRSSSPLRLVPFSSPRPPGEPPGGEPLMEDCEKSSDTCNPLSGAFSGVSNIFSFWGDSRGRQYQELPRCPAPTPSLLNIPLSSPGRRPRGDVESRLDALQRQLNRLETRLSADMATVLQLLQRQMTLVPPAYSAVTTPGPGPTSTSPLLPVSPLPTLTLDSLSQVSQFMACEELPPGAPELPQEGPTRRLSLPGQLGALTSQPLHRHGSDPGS

First: Cc1cc(S(=O)(=O)N2CCCC2)ccc1OCC(=O)N1CCC(C(N)=O)CC1
Second: COc1ccc(OC)c(S(=O)(=O)N2CCC(C(=O)N3CCOCC3)CC2)c1
The “hERG current change (%, negative = inhibition) at 10uM” value of the first is higher: 19.4% for the first, 15.7% for the second.

Going from `CC1=C(C)CC(C(=O)NCc2ccccc2F)C(C(=O)O)C1` (centres unmarked) to `CCOC(=O)N1CCC(=NNC(=O)c2ccccc2F)CC1`, the “hERG current change (%, negative = inhibition) at 10uM” value falls from 0.402% to -3.83%.

First: CC(C)NC(=S)N1CCN(S(=O)(=O)c2cccc(C(F)(F)F)c2)CC1
Second: O=C(c1ccccc1)N1CCN(S(=O)(=O)c2cccc(NS(=O)(=O)c3ccccc3)c2)CC1
The “hERG current change (%, negative = inhibition) at 10uM” value of the first is lower: -1.79% for the first, -0.537% for the second.

First: CCOC(=O)Cc1csc(NC(=O)Nc2ccc(OC(F)(F)F)cc2)n1
Second: CSc1nsc(SCC(=O)Nc2ccc(C(=O)O)cc2)n1
The “hERG current change (%, negative = inhibition) at 10uM” value of the first is higher: 18.6% for the first, -7.26% for the second.

Compared with `CCC(C(=O)NC1CCCCC1)n1c(SCc2cccc(C)c2)nc2ccncc21` (centres unmarked), `COc1ccc(C(C(=O)NC2CCCCC2)N2CCC3(CC2)OCCO3)cc1` (centres unmarked) is higher in “hERG current change (%, negative = inhibition) at 10uM” value: -28.4% for the first, -8.32% for the second.

Compared with `CC(=Nc1ccc(C)cc1)c1sc2ccccc2c1O`, `Cc1ccc(-c2noc(-c3ccccc3C(=O)NCC3CCCO3)n2)cc1` (centres unmarked) is lower in “hERG current change (%, negative = inhibition) at 10uM” value: 4.53% for the first, -18.6% for the second.

First: Cc1ccc([C@@H]2CC=C(C(=O)O)[C@H](c3ccc(F)cc3)N2S(=O)(=O)c2ccc(C)cc2)cc1
Second: COc1cc(S(=O)(=O)Nc2cccc(C)c2)ccc1NC(=O)c1cccnc1
The “hERG current change (%, negative = inhibition) at 10uM” value of the first is lower: 17.4% for the first, 18.7% for the second.

Compared with `CN(CC(=O)Nc1ccccc1F)Cc1cccs1`, `N#CCCN(Cc1ccccc1)C(=S)Nc1ccc(F)cc1` is lower in “hERG current change (%, negative = inhibition) at 10uM” value: 15.6% for the first, 6.43% for the second.

Compared with `O=c1nc(C(F)(F)F)nc2ccccn12`, `CN(CC1CCCN(CCc2cccc(C(F)(F)F)c2)C1)C(=O)c1ccco1` (centres unmarked) is lower in “hERG current change (%, negative = inhibition) at 10uM” value: 0.714% for the first, -69.2% for the second.

Going from `Cc1ccc(Cn2c(N3CCN(CCO)CC3)nc3c2c(=O)n(C)c(=O)n3C)cc1` to `CCCNc1nc2c(c(=O)n(C)c(=O)n2C)n1CCCc1ccccc1`, the “hERG current change (%, negative = inhibition) at 10uM” value falls from -4.08% to -11.3%.

First: COC(=O)C1=C(C)NC(C)=C(C(=O)OC)C1C(=O)OCc1nc2cc(C(=O)OC)ccc2c(=O)[nH]1
Second: Cc1cc(NC(=O)CSc2nc3cc(C(=O)NCCCOC(C)C)ccc3c(=O)n2Cc2ccco2)no1
The “hERG current change (%, negative = inhibition) at 10uM” value of the first is lower: -18.5% for the first, -3.13% for the second.

Going from `COc1ccc(NC(=O)/C(=C\c2ccncc2)NC(=O)c2ccccc2)cc1` to `CN(C)CCNC(=O)/C(=C/c1ccc(-c2cccc(Cl)c2)o1)NC(=O)c1ccccc1`, the “hERG current change (%, negative = inhibition) at 10uM” value falls from -12.5% to -72%.

Going from `Cc1sc2ncn(CC(=O)NCCCC(=O)N3CCC4(CC3)OCCO4)c(=O)c2c1C` to `COc1ccccc1NC(=O)CN1CCN(C(=O)C2CCCO2)CC1` (centres unmarked), the “hERG current change (%, negative = inhibition) at 10uM” value falls from 5.76% to 0.971%.

First: Cc1nn(Cc2ccccc2)c(C)c1C=C1C(=O)NC(=O)NC1=O
Second: Cc1ccsc1/C=C1\C(=O)NC(=S)N(C)C1=O
The “hERG current change (%, negative = inhibition) at 10uM” value of the first is lower: 15% for the first, 15.3% for the second.

First: CCOC(=O)c1c(Nc2ccc(Cl)cc2)sc(/C=C2\C=Nc3ccccc32)c1O
Second: CCCOc1ccc(N2C(=O)C/C(=C\c3ccccc3)C2=O)cc1
The “hERG current change (%, negative = inhibition) at 10uM” value of the first is lower: 5.52% for the first, 20.1% for the second.

Going from `CC(C)(C)NC(=O)CSCc1c(Cl)cccc1Cl` to `NC1=NC(=O)C(Cc2cccc(Cl)c2Cl)S1` (centres unmarked), the “hERG current change (%, negative = inhibition) at 10uM” value rises from -16.5% to 4.99%.

First: Cc1ccc2c(c1)cc(CN(Cc1ccco1)C(=O)COc1ccccc1)c1nnnn12
Second: COc1ccccc1Oc1ccc2c(c1)C(=O)N(c1ccccc1)C2=O
The “hERG current change (%, negative = inhibition) at 10uM” value of the first is higher: 9.43% for the first, -3.59% for the second.

First: Cc1nnc(N2C(=O)c3ccc(Br)cc3C2=O)s1
Second: Cc1nnc(Nc2ccc3c(c2)OCO3)c2ccccc12
The “hERG current change (%, negative = inhibition) at 10uM” value of the first is higher: 25.6% for the first, -7.51% for the second.

Going from `COc1ccc(O)c(/C=N/NC(=O)c2cccc(N3CCCC3=O)c2)c1` to `CC(=O)Nc1ccc(OS(=O)(=O)c2ccc(C)cc2C)cc1`, the “hERG current change (%, negative = inhibition) at 10uM” value falls from 9.17% to -2.86%.

Going from `O=c1[nH]cnc2c([N+](=O)[O-])cccc12` to `Cc1cccc(C(=O)NCCCNC(=O)c2ccccn2)c1`, the “hERG current change (%, negative = inhibition) at 10uM” value rises from 12.2% to 12.3%.

Going from `Cc1cccc(NC(=O)C2CC(=O)OC23CCCCC3)c1` (centres unmarked) to `O=C(Cn1c2[n+](c3ccc(C(F)(F)F)cc31)CCCCC2)Nc1ccc(Br)cc1.[Cl-]`, the “hERG current change (%, negative = inhibition) at 10uM” value rises from -0.121% to 19%.

Going from `CC(C)CCNC(=O)CCCC1=NS(=O)(=O)c2ccccc2N1` to `COc1ccc(OCC(=O)NCCCCCCNC(=O)COc2ccc(OC)cc2)cc1`, the “hERG current change (%, negative = inhibition) at 10uM” value rises from -5.75% to 10.6%.
